{"source": "PubChem BioAssay AID1347165", "about": "(National Center for Advancing Translational Sciences (NCATS), 2019)", "note": "Where “and” joins values, the source holds several entries; their conditions need not be identical. Identical values can stand only once. Out of some 220,000 compounds screened, about 5,700 (2.6%) were called active. Inconclusive results, whose numbers are uncertain, are shown with a selection of clear calls. The call rests on the fitted dose curve; in most records, active means well fitted inhibition curve with a large enough effect; inconclusive means small, poorly fitted or top-dose-only effect; inactive means no such curve, though single readings can be large or run the other way. Potencies of inconclusive entries are doubtful fits and often do not repeat. Potency means the concentration at half of the fitted maximal effect; tags describe the fitted curve by direction and shape.", "data": [{"target": "Lysine-specific demethylase 5B (Homo sapiens) (UniProt Q9UGL1)", "sequence (Q9UGL1 whole entry, looked up)": "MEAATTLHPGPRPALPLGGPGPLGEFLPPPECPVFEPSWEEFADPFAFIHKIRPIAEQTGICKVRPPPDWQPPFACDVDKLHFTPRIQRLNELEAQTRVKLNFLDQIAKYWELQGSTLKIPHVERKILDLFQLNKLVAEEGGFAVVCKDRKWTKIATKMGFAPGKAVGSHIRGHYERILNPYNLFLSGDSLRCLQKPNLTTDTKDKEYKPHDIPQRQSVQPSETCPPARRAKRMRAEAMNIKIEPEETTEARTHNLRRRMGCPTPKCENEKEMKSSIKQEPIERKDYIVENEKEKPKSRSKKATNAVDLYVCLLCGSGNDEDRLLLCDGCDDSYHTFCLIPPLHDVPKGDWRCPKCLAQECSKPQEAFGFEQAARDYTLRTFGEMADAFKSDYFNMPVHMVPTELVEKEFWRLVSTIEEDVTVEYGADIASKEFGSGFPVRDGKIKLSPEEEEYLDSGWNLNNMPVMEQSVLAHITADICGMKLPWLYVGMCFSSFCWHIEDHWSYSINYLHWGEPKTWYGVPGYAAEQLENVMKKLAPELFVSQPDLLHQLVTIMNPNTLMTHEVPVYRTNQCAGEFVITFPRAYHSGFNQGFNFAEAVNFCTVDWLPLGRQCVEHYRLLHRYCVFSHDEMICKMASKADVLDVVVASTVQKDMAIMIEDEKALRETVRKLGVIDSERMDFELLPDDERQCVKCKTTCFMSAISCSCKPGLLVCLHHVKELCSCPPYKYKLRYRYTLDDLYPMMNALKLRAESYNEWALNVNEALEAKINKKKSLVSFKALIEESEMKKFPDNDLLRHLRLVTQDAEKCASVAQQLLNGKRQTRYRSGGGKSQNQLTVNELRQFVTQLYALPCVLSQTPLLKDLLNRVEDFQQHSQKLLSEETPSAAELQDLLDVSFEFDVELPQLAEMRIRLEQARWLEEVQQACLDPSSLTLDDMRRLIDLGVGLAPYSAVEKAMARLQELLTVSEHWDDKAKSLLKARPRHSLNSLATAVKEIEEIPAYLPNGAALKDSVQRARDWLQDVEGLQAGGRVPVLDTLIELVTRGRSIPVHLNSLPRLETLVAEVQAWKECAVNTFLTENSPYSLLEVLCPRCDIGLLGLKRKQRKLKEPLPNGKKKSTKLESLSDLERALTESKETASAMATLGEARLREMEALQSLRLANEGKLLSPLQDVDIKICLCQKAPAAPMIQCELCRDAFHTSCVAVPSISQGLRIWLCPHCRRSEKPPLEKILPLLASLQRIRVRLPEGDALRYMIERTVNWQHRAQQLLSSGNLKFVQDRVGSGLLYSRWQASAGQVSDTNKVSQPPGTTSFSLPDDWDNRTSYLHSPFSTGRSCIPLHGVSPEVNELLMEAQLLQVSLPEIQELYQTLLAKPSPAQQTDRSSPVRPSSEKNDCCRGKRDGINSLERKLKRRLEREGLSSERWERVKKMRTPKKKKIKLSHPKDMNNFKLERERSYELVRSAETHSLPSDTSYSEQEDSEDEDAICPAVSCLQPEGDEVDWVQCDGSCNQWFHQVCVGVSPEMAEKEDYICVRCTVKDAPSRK", "experiment": "Primary screen for KDM5B Histone Demethylases FDH-coupled qHTS; further: nearly all actives have a fitted effect of over 70% in size", "conditions": "FDH-coupled NADH fluorescence (FDH is formaldehyde dehydrogenase); series mostly up to 57.7 µM", "summary_of_the_method": "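Measured: NADH fluorescence change, 30 min, RT. System: KDM5BΔAP 200 nM final, H3K4me3 peptide, α-KG, Fe(II), ascorbate, NAD⁺ plus FDH, pH 7.5 HEPES. Compounds: titrated, 10 min pre-incubation with enzyme.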", "values": [{"molecule": "O=C(NC1CCOCC1)c1cc(-c2ccccc2F)cc2c1OCCN2Cc1cccnc1", "Potency": "active: 22.4 µM"}, {"molecule": "CCCNC(=O)c1cc2ccc(OC)cc2nc1C", "Potency": "inconclusive: 31.6 µM [inhibitor, partial curve, poor fit]"}, {"molecule": "CCC(=O)N1CCc2cc(Br)cc(S(=O)(=O)N3CCC(C(=O)Nc4cccc(C)c4)CC3)c21", "Potency": "inconclusive: 1.78 µM [inhibitor, full curve, poor fit]"}, {"molecule": "Cc1cc2c(cc3c(SCc4cccc(Cl)c4)nnc(C)n32)o1", "Potency": "inconclusive: 28.2 µM [inhibitor, partial curve, poor fit]"}, {"molecule": "COc1ccc(NC(=O)Cn2cc(S(=O)(=O)c3ccccc3)c(=O)c3cc(C)ccc32)cc1Cl", "Potency": "inconclusive: 14.1 µM [inhibitor, partial curve, poor fit]"}, {"molecule": "Cn1c(CCc2ccccc2)nc2cc(NC(=O)c3ccc(C#N)cc3)ccc21", "Potency": "inconclusive: 39.8 µM [inhibitor, single point]"}, {"molecule": "CCN1c2cc(C(=O)Nc3ccc(F)cc3)ccc2C(=O)N2CCCCC21", "note": "(centres undefined)", "Potency": "inconclusive: 11.2 µM [inhibitor, partial curve, poor fit]"}, {"molecule": "Cc1ccc(-c2nc(C(=O)NCc3ccco3)no2)cc1", "Potency": "inconclusive: 28.2 µM [inhibitor, partial curve, poor fit]"}, {"molecule": "CCc1nn2c(=O)cc(CN(CC)CC)nc2s1", "Potency": "inactive"}, {"molecule": "COc1ccc(CCNC(=O)c2cc3c(=O)n4ccccc4nc3n2C)cc1", "Potency": "inconclusive: 11.2 µM [inhibitor, partial curve, poor fit]"}, {"molecule": "O=C(COc1ccc(F)cc1)N1CC(Oc2ccc(-c3nc(-c4ccccc4)no3)cc2)C1", "Potency": "inconclusive: 15.8 µM [inhibitor, partial curve, poor fit]"}, {"molecule": "O=C(NCc1ccccc1)c1ccc(CSc2nc3cccnc3n2Cc2ccccc2)cc1", "Potency": "inconclusive: 31.6 µM [inhibitor, partial curve, poor fit]"}, {"molecule": "CCC(CC)NC(=O)c1ccc(C)c(C)c1", "Potency": "inactive"}, {"molecule": "CCOC(=O)C(=O)Nc1c(C(=O)Nc2ccc(F)cc2)oc2ccccc12", "Potency": "inactive"}, {"molecule": "O=C(NC[C@H]1O[C@H](Cc2cc(CN3CCNCC3)on2)CC[C@@H]1O)c1ccccc1F", "Potency": "inconclusive: 12.6 µM [inhibitor, partial curve, poor fit]"}, {"molecule": "O=C(NCCn1cccc1-c1nc(-c2ccccc2)no1)c1cccc(Cl)c1", "Potency": "inconclusive: 35.5 µM [inhibitor, partial curve, poor fit]"}, {"molecule": "CN1CCC2(C1)CN(CC1CC1)c1ccc(C(=O)Nc3ccccc3)cc12", "note": "(centres undefined)", "Potency": "inconclusive: 28.2 µM [inhibitor, partial curve]"}, {"molecule": "CCc1cccc(C)c1NC(=O)c1cc2ccccc2o1", "Potency": "inconclusive: 3.16 µM [inhibitor, full curve, poor fit]"}, {"molecule": "CCCC(=O)N1Cc2ccccc2CC2(CCN(C)CC2)C1", "Potency": "inactive"}, {"molecule": "Cc1ccccc1-c1cc(=O)c2cc(NC(=O)c3ccncc3)ccc2o1", "Potency": "inconclusive: 35.5 µM [inhibitor, partial curve, poor fit]"}, {"molecule": "O=C1Nc2ccccc2CC12CCCN2Cc1ccc(Cl)cc1", "note": "(centres undefined)", "Potency": "inconclusive: 100 µM [inhibitor, partial curve, poor fit]"}, {"molecule": "O[C@@H]1CC(CNC2CCC2)(COc2cccnc2)C[C@@H]1O", "note": "(some centres undefined)", "Potency": "inactive"}, {"molecule": "O=C1Nc2ccc(-c3ccsc3)cc2C(=O)N2CCN(C(=O)CO)C[C@H]12", "Potency": "inconclusive: 28.2 µM [inhibitor, partial curve, poor fit]"}, {"molecule": "CCOc1cc(N)c(C#N)cc1OCC", "Potency": "inactive"}, {"molecule": "CCOc1ccc2[nH]c3c(NCCC(C)C)ncnc3c2c1", "Potency": "inconclusive: 39.8 µM [inhibitor, partial curve, poor fit]"}, {"molecule": "CCCc1noc(C(C)Sc2n[nH]c(-c3ccccc3F)n2)n1", "note": "(centres undefined)", "Potency": "inactive"}, {"molecule": "CN(C)C1CCN(c2ccc(C(=O)N3CCC(N4CCOCC4)CC3)cn2)C1", "note": "(centres undefined)", "Potency": "inconclusive: 22.4 µM [inhibitor, partial curve, poor fit]"}, {"molecule": "N#Cc1ccc(CNc2ccccc2C(N)=O)cc1", "Potency": "inconclusive: 28.2 µM [inhibitor, partial curve, poor fit]"}, {"molecule": "Cc1ccc(-c2nc(CNC(=O)C(C)CN)[nH]c2-c2ccccn2)cc1", "note": "(centres undefined)", "Potency": "inactive"}, {"molecule": "CCN(Cc1ccccc1)S(=O)(=O)c1ccc(N2CCCCS2(=O)=O)cc1", "Potency": "inconclusive: 28.2 µM [inhibitor, single point]"}, {"molecule": "Cc1oc(-c2cccs2)nc1CC(=O)NCc1ccc(F)cc1", "Potency": "inconclusive: 25.1 µM [inhibitor, partial curve, poor fit]"}, {"molecule": "CCOCCCNC(=O)c1cc2cn(C3CC3)cc2s1", "Potency": "inconclusive: 15.8 µM [inhibitor, single point]"}, {"molecule": "CCCc1noc(-c2cccn3c(CNC(=O)c4ccc(C(C)(C)C)cc4)nnc23)n1", "Potency": "inconclusive: 3.55 µM [inhibitor, full curve, poor fit]"}, {"molecule": "COc1ccc(CCNC(=O)C2CC(=O)N(c3n[nH]c4ccccc34)C2)cc1OC", "note": "(centres undefined)", "Potency": "inactive"}, {"molecule": "Cc1ccc(F)cc1NC(=O)C(C)(C)c1ccccc1", "Potency": "inactive"}, {"molecule": "CC(=O)N1CCCC2(C1)CN(C)c1ccc(C(=O)NCC(F)(F)F)cc12", "note": "(centres undefined)", "Potency": "inconclusive: 35.5 µM [inhibitor, partial curve, poor fit]"}, {"molecule": "Cc1cc(S(=O)(=O)NCCc2csc(-c3cccc(F)c3)n2)ccc1F", "Potency": "inconclusive: 1 µM [inhibitor, partial curve, poor fit]"}, {"molecule": "CCCC(=O)OC1=C(C(C)=O)N(Cc2ccccc2)S(=O)(=O)c2ccccc21", "Potency": "inconclusive: 31.6 µM [inhibitor, single point]"}, {"molecule": "COCC1CN(C2CCC2)CC12CCN(C(=O)Cc1cccc(OC)c1)CC2", "note": "(centres undefined)", "Potency": "inconclusive: 14.1 µM [inhibitor, partial curve]"}, {"molecule": "CCCCOc1ccc(S(=O)(=O)n2nc(C)c(S(=O)(=O)N3CCCCCC3)c2C)cc1", "Potency": "inconclusive: 39.8 µM [inhibitor, single point]"}, {"molecule": "Cc1ccc(-c2ccsc2C(=O)NCc2ccccn2)cc1", "Potency": "inactive"}, {"molecule": "COc1cc(-c2nc(-c3c(C)noc3C)cc3[nH]c(C)cc23)ccn1", "Potency": "active: 31.6 µM"}, {"molecule": "CCN(CC)S(=O)(=O)c1ccc2c(c1)c(=O)c(C(=O)N1CCN(c3ccccc3OC)CC1)cn2C", "Potency": "inconclusive: 4.47 µM [inhibitor, full curve, poor fit]"}, {"molecule": "COc1cc(NC(=O)Nc2c[nH]c(=O)[nH]c2=O)cc(OC)c1OC", "Potency": "inconclusive: 35.5 µM [inhibitor, single point]"}, {"molecule": "Cc1ccc(NC(=O)C(=O)NCC(c2ccc3c(c2)OCO3)N2CCN(C)CC2)cc1C", "note": "(centres undefined)", "Potency": "inactive"}, {"molecule": "Cc1ccc(NC(=O)Cn2nc3ccc(S(=O)(=O)C(C)(C)C)nn3c2=O)cc1C", "Potency": "inactive"}, {"molecule": "Cc1c(C(=O)c2cccc(C(F)(F)F)c2)c2ccccn2c1CCC#N", "Potency": "inconclusive: 14.1 µM [inhibitor, partial curve, poor fit]"}, {"molecule": "Fc1cc(Br)ccc1OCc1cc(-c2ccccc2)on1", "Potency": "inactive"}, {"molecule": "COc1cc(/C=C/C(=O)OCc2csc(CC(=O)Nc3ccc(C)cc3)n2)ccc1OCC#N", "Potency": "inconclusive: 31.6 µM [inhibitor, partial curve, poor fit]"}, {"molecule": "CN(C)C(=O)COC(=O)c1csc(NCc2ccccc2)n1", "Potency": "inactive"}, {"molecule": "O=C(Nc1ccccc1Cl)c1cc(=O)c2cc(Cl)ccc2o1", "Potency": "inactive"}, {"molecule": "CN1CC(=O)N(C2CCNCC2)Cc2c(NC3CCC3)ncnc21", "Potency": "inconclusive: 56.2 µM [inhibitor, partial curve, poor fit]"}, {"molecule": "CNC(=O)N1CCC(C2CCN(C3CCN(C(C)=O)CC3)C2)CC1", "note": "(centres undefined)", "Potency": "inconclusive: 22.4 µM [inhibitor, partial curve, poor fit]"}, {"molecule": "O=C(CSc1ccc2c(c1)OCCCO2)Nc1ccc2c(c1)CCC2", "Potency": "inactive"}, {"molecule": "O=C(Cn1nnc(-c2cccc(C(F)(F)F)c2)n1)NCc1ccc(F)cc1", "Potency": "inactive"}, {"molecule": "CCc1ccc(CNC(=O)c2cc3cc4ccc(OC)cc4nc3o2)cc1", "Potency": "inconclusive: 3.55 µM [inhibitor, full curve, poor fit]"}, {"molecule": "COc1ccc(/C=C(/Cl)c2nc3ccccc3s2)cc1", "Potency": "inconclusive: 31.6 µM [inhibitor, single point]"}, {"molecule": "c1cncc(-c2nc3ncccc3[nH]2)c1", "Potency": "active: 141 µM and active: 35.5 µM"}, {"molecule": "COc1ccc(C(=O)Nc2nc(-c3nnn(-c4cc(OC)ccc4OC)c3C)ns2)cc1", "Potency": "inconclusive: 28.2 µM [inhibitor, single point]"}, {"molecule": "Cn1cc(CC(=O)N2CCCc3ncc(C(=O)Nc4cccc(C(F)(F)F)c4)cc32)c2ccccc21", "Potency": "active: 22.4 µM"}, {"molecule": "O=C(CSc1ccc2c(c1)OCCCO2)Nc1ccc2ccccc2c1", "Potency": "inactive"}, {"molecule": "Cc1ccc(OCc2cc(=O)n3c(-c4ccccc4)csc3n2)cc1", "Potency": "inconclusive: 11.2 µM [inhibitor, partial curve, poor fit]"}, {"molecule": "Cc1nc(C)c(C(=O)NCC2Cn3cccc3C(=O)N2C)s1", "note": "(centres undefined)", "Potency": "inactive"}, {"molecule": "COc1ccccc1CNC(=O)c1ccc2c(c1)C(O)CCCCCN2C", "note": "(centres undefined)", "Potency": "inconclusive: 39.8 µM [inhibitor, single point]"}, {"molecule": "CC1(CCCCN2CCOCC2)COc2ccc(C(=O)NCc3ccco3)cc2N1", "note": "(centres undefined)", "Potency": "active: 35.5 µM"}, {"molecule": "CC(=O)c1cccc(NC(=O)c2ccccc2SC(C)C)c1", "Potency": "inactive"}, {"molecule": "Cc1ccc(S(=O)(=O)Nc2nc3ccc(C)cc3nc2Nc2ccc3c(c2)OCO3)cc1", "Potency": "inactive"}, {"molecule": "CN(C(=O)CSc1nc2ccc(NC(=O)c3cccs3)cc2s1)c1ccccc1", "Potency": "inconclusive: 39.8 µM [inhibitor, single point]"}, {"molecule": "COc1ccccc1N(C)S(=O)(=O)c1ccc(C(=O)Nc2cccc(C)c2C)cc1", "Potency": "inactive"}]}]}
